Out of some 50,000 compounds screened, about 800 (1.6%) showed an effect of 50% or more. This is one part of the list.
Target: Bcl-2-like protein 10 (Homo sapiens) (UniProt Q9HD36)
Test: Phenotype converters, Bcl-B/TR3 peptide binding displacement, primary biochemical FP (AID 1240);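 further: 0% = Bcl-B with tracer peptide and DMSO and 100% = tracer peptide lacking Bcl-B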
Conditions: GST-Bcl-B / FITC-TR3 peptide fluorescence polarization; stronger effect = higher value; compound at 3.75 mg/L

UniProt Q9HD36, sequence (Q9HD36 whole entry, looked up): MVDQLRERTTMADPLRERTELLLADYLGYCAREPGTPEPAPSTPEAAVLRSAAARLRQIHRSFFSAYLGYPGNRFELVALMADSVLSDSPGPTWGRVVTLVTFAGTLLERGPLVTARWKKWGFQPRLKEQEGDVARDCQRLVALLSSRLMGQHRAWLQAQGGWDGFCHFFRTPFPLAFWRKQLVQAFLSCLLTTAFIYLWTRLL

In order of rising displacement:
1. COc1ccc(CN2C(=O)NC(=O)/C(=C\c3ccoc3)C2=O)cc1  -114%
2. COc1ccc(NC2=NCC(C)S2)cc1 (stereo not drawn)  -18.5%
3. COc1ccc(-c2nc3ccccc3c(=O)n2-c2cccnc2)cc1  -15.7%
4. CCOc1ccccc1CN(CCc1ccc2c(c1)OCO2)Cc1ccc(F)c(F)c1  -15.5%
5. CCOC(=O)c1ccc2c(c1)n(Cc1ccccc1)c(C)[n+]2CC  -14.9%
6. O=c1[nH]c2ccccc2c(=O)n1-c1ccccc1  -12.7%
7. Cc1c(Cl)cccc1NC(=O)C1C(C)(C)C1(C)C  -12.5%
8. CCC(CC)N1CCN(Cc2ccc(OC)c(OC)c2OC)CC1  -12%
9. Oc1ccc(Br)cc1CN1CCN(Cc2ccccc2Cl)CC1  -11.7%
10. O=c1c2ccccc2nc(/C=C/c2ccccc2)n1-c1ccccc1[N+](=O)[O-]  -9%
11. CCOc1ccc(N2C(=O)/C(=C/c3ccc(C)o3)C(=O)NC2=S)cc1  -8.7%
12. CN1CCN(C(=O)COc2ccc(Cl)cc2Br)CC1  -7.4%
13. CCC1(C)CC(CCNCc2ccc(OC)c(OC)c2)(c2ccc(C)cc2)CCO1 (stereo not drawn)  -7.2%
14. O=c1c2ccccc2nc(-c2ccco2)n1-c1cccnc1  -6.1%
15. CCC1CN(C)CCC1(O)c1ccccc1 (stereo not drawn)  -6.1%
16. O=C(CN1CCOCC1)Nc1ccc(Br)cc1C(=O)c1ccccc1Cl  -4%
17. Cc1cccc(N2C(=O)NC(=O)/C(=C/c3ccc(-c4ccc(C(=O)O)c(Cl)c4)o3)C2=O)c1  -3.3%
18. CC1(C)C(C(=O)Nc2ccc(Br)cc2)C1(C)C  -2.9%
19. Clc1ccc(CCN(Cc2ccco2)Cc2ccco2)c(Cl)c1  -2.6%
20. CCN1C(=O)/C(=C/c2ccoc2)C(=O)NC1=S  -2.4%
21. CC(C(=O)c1ccc(Cl)cc1Cl)n1cncn1 (stereo not drawn)  -2.3%
22. CCC(C)N1CCN(Cc2ccc(OC)c(OC)c2OC)CC1 (stereo not drawn)  -1.4%
23. COc1ccc(CN2CCN(Cc3cccc(OC)c3)CC2)cc1  -1%
24. COc1cc(OC)cc(C(=O)Nc2ccc([N+](=O)[O-])cc2C(=O)c2ccccc2)c1  -0.5%
25. CCc1cc(C)cc(OCCOc2ccccc2C=C2C(=O)NC(=S)NC2=O)c1  -0.4%
26. Cc1ccc(-n2c(=O)[nH]c3ccccc3c2=O)cc1  0.3%
27. CCCCCCOC(=O)C1CN1C(C)(C)CO (stereo not drawn)  0.5%
28. CC(Cc1ccccc1)NC(=O)NC(=O)Cc1ccccc1 (stereo not drawn)  0.6%
29. O=C1CC(=O)N(c2ccc(I)cc2)C(=O)N1  1.4%
30. COc1cccc(OCC(=O)N2CCN(C)CC2)c1  1.4%
31. CC1CN(c2ccc([N+](=O)[O-])c(N3CCOCC3)c2)CCN1 (stereo not drawn)  2.5%
32. O=Cc1cn(Cc2ccccc2F)c2ccccc12  3.2%
33. COc1cc2c(cc1OC)CC(C)(C)[N+](C)=C2  3.8%
34. CSc1ccc(CN2CCN(Cc3cc(Br)ccc3O)CC2)cc1  4%
35. Cc1cc([N+](=O)[O-])nn1CC(=O)Nc1ccc(Cl)cc1C(=O)c1ccccc1  4.2%
36. CCOc1ccc(Br)cc1C=C1C(=O)NC(=S)NC1=O  4.5%
37. O=C1NC(=O)N(c2ccc(Cl)cc2)C(=O)/C1=C\c1cc(Br)cc(Cl)c1O  4.8%
38. O=c1c2ccccc2nc(/C=C/c2ccc3c(c2)OCO3)n1-c1cccc(O)c1  5.1%
39. CC12CCC(O)CC1CCC1C2CCC2(C)C1CCC2(C)O (stereo not drawn)  5.1%
40. O=C1NC(=O)N(c2cccc(Br)c2)C(=O)/C1=C/c1ccco1  5.2%
41. COc1cccc(CN2CCN(Cc3ccccc3Br)CC2)c1  5.2%
42. Cc1cccc(-n2c(-c3ccccc3F)nc3ccccc3c2=O)c1  5.6%
43. O=c1c2ccccc2nc(/C=C/c2ccc(Cl)cc2)n1-c1ccccc1O  6.8%
44. N/C(=N\[N+](=O)[O-])N/N=C\c1ccc(-c2cccc([N+](=O)[O-])c2)o1  7.3%
45. CCCCCn1c(=O)c(C(=O)Nc2ccccc2Cl)c(O)c2ccccc21  7.8%
46. COc1ccc(Br)cc1CN1CCN(C(=O)COc2ccc(Cl)cc2)CC1  8%
47. O=C(CF)NC(Nc1ccc(Br)cc1)C(Cl)(Cl)Cl (stereo not drawn)  8.3%
48. O=C1NC(=O)C(=Cc2ccccc2Cl)C(=O)N1  9.8%
49. O=C1NC(=S)NC(=O)C1=Cc1ccc(OCc2ccccc2)c(OCc2ccccc2)c1  9.8%
50. CCOc1ccc(N2C(=O)NC(=O)/C(=C\c3cc(OC)c(OC)cc3[N+](=O)[O-])C2=O)cc1  10.2%
51. Cc1ccc(N2C(=O)CC(=O)N(C)C2=S)cc1  10.5%
52. CC1=[N+]([O-])C(C(=O)c2ccccc2)N(O)C1(C)C (stereo not drawn)  10.9%
53. N#CCCN1CN(c2ccc(Cl)cc2)CN/C1=N\[N+](=O)[O-]  11.2%
54. O=S(=O)(c1ccccc1)N1CC1c1ccccc1 (stereo not drawn)  11.6%
55. CC(=O)c1ccc(OC(NC(=O)c2cccc(C)c2)C(Cl)(Cl)Cl)cc1 (stereo not drawn)  11.7%
56. O=C(CNS(=O)(=O)c1ccccc1)Nc1ccc(Br)cc1C(=O)c1ccccc1  12%
57. CCN1CCN(c2ccc(C(F)(F)F)cn2)CC1  12.4%
58. O=C1NC(=S)NC(=O)C1CCCC=C(Cl)Cl  12.7%
59. O=C(COc1ccc2ccccc2c1)N1CCN(CCCc2ccccc2)CC1  12.9%
60. COC1CCCCC1NCCc1ccc(Cl)cc1Cl (stereo not drawn)  13.2%
61. O=C1NC(=O)N(Cc2ccccc2)C(=O)/C1=C/c1ccc2c(c1)OCO2  13.8%
62. CCOc1cc(C=C2C(=O)NC(=S)NC2=O)ccc1OCc1c(C)no[n+]1[O-]  14.2%
63. O=[N+]([O-])c1nonc1NCn1nnc2ccccc21  16.2%
64. COc1ccc(C2c3c(c4ccccc4oc3=O)Oc3c2c(=O)oc2ccccc32)cc1  16.4%
65. O=C1NC(=O)N(c2ccc(Cl)cc2)C(=O)/C1=C/c1ccc(Br)o1  18.9%
66. O=C1NC(=S)N(c2ccc(Br)cc2)C(=O)/C1=C/c1ccc(-c2ccccc2C(=O)O)o1  19.2%
67. Cc1nc2ccccc2c(=O)n1-c1ccc(O)cc1  20.5%
68. Cc1ccc(C=C2C(=O)N(C)C(=O)N(C)C2=O)o1  20.7%
69. COc1ccc(Cl)cc1N=Cc1c(O)n(C)c(=O)n(C)c1=O  32.2%
70. O=C1NC(=S)N(c2cccc(Br)c2)C(=O)/C1=C/c1ccco1  39%
71. COc1cccc(-n2c(/C=C/c3ccco3)nc3ccccc3c2=O)c1  106%
72. CCn1cc(C=C2C(=O)NC(=S)NC2=O)c2ccccc21  136%
73. COc1ccc(C=C2C(=O)NC(=O)NC2=O)cc1OCc1ccc(Cl)cc1Cl  150%

Reference: PubChem BioAssay AID1240 (Sanford-Burnham Center for Chemical Genomics, 2008)
